Assay results reported in patent publication US11618753B2 (priority 2018, dated 2023).
Counter-ions that a name gives are not always drawn.

The compounds below were run on MLKL phosphorylation, HT29-L23 human colorectal adenocarcinoma cells (assay: cells). Settings: read-out: pMLKL HCS Cell Assay (IC50, uM).

Structure (SMILES)	IC50
Cc1ncc(-c2cc(C(F)(F)F)c3c(N)ncnn23)cc1C(=O)N[C@@H]1CN(C(=O)[C@@H](O)C(F)(F)F)C[C@@H]1F [Example 361, 5-[4-amino-5-(trifluoromethyl)pyrrolo [2,1-f][1,2,4]triazin-7-yl]-N-[(3R,4S)-4-fluoro-1-[(2R)-3,3,3-trifluoro-2-hydroxypropanoyl]pyrrolidin-3-yl]-2-methylpyridine-3-carboxamide, TFA]	0.189 µM
Cc1cc(C(=O)N2C[C@H](F)[C@H](NC(=O)c3cc(-c4cc(C(F)(F)F)c5c(N)ncnn45)ccc3C)C2)c(F)cn1 [Example 1042, 5-[4-amino-5-(trifluoromethyl)pyrrolo[2,1-f][1,2,4]triazin-7-yl]-N-[(3R,4S)-4-fluoro-1-(5-fluoro-2-methylpyridine-4-carbonyl)pyrrolidin-3-yl]-2-methylbenzamide]	0.0029 µM
COc1ncc(-c2cc(C(F)(F)F)c3c(N)ncnn23)cc1C(=O)N[C@@H]1CN(C(=O)N2CCC(F)(F)C2)C[C@@H]1F [Example 1841, 5-(4-amino-5-(trifluoromethyl)pyrrolo[2,1-f][1,2,4]triazin-7-yl)-N-((3R,4S)-1-(3,3-difluoropyrrolidine-1-carbonyl)-4-fluoropyrrolidin-3-yl)-2-methoxynicotinamide]	0.086 µM
Cc1ccc(C(=O)N2C[C@H](F)[C@H](NC(=O)c3cc(-c4cc(C(F)(F)F)c5c(N)ncnn45)c(F)cc3C)C2)nn1 [Example 866, 5-[4-amino-5-(trifluoromethyl)pyrrolo[2,1-f][1,2,4]triazin-7-yl]-4-fluoro-N-[(3R,4S)-4-fluoro-1-(6-methylpyridazine-3-carbonyl)pyrrolidin-3-yl]-2-methylbenzamide]	0.347 µM
COc1ncc(-c2cc(OC)c3c(N)ncnn23)cc1C(=O)N[C@@H]1CN(C(=O)[C@@](C)(O)C(F)(F)F)C[C@@H]1F [Example 1604, 5-{4-amino-5-methoxypyrrolo[2,1-f][1,2,4]triazin-7-yl}-N-[(3R,4S)-4-fluoro-1-[(2R)-3,3,3-trifluoro-2-hydroxy-2-methylpropanoyl]pyrrolidin-3-yl]-2-methoxypyridine-3-carboxamide]	0.0057 µM
COc1ncc(-c2cc(CN3CCC(F)(F)CC3)c3c(N)ncnn23)cc1C(=O)N[C@@H]1CN(C(=O)OCCCF)C[C@@H]1F [Example 1516, 3-fluoropropyl (3R,4S)-3-(5-{4-amino-5-[(4,4-difluoropiperidin-1-yl)methyl]pyrrolo[2,1-f][1,2,4]triazin-7-yl}-2-methoxypyridine-3-amido)-4-fluoropyrrolidine-1-carboxylate]	0.00062 µM
Cc1cc(F)c(-c2cc(C(F)(F)F)c3c(N)ncnn23)cc1C(=O)N[C@@H]1CN(C(=O)c2ncccc2C(F)(F)F)C[C@@H]1F [Example 846, 5-[4-amino-5-(trifluoromethyl)pyrrolo[2,1-f][1,2,4]triazin-7-yl]-4-fluoro-N-[(3R,4S)-4-fluoro-1-[3-(trifluoromethyl)pyridine-2-carbonyl]pyrrolidin-3-yl]-2-methylbenzamide]	0.057 µM
COCCCN1CC(F)C(NC(=O)c2cc(-c3cc(C(F)(F)F)c4c(N)ncnn34)cnc2OC)C1 (racemic) [Example 187, 5-[4-amino-5-(trifluoromethyl)pyrrolo[2,1-f][1,2,4]triazin-7-yl]-N-[4-fluoro-1-(3-methoxypropyl)pyrrolidin-3-yl]-2-methoxypyridine-3-carboxamide]	0.307 µM
COc1ncc(-c2cc(C(F)(F)F)c3c(N)ncnn23)cc1C(=O)NC1CN(Cc2ccnc3ccccc23)CC1F (racemic) [Example 202, 5-[4-amino-5-(trifluoromethyl)pyrrolo[2,1-f][1,2,4]triazin-7-yl]-N-{4-fluoro-1-[(quinolin-4-yl)methyl]pyrrolidin-3-yl}-2-methoxypyridine-3-carboxamide]	0.135 µM
COc1ncc(-c2cc(C(F)(F)F)c3c(N)ncnn23)cc1C(=O)N[C@H]1CN(C(=O)C2CCCCC2)C[C@H]1C (stereo in doubt) [Example 16, 5-[4-amino-5-(trifluoromethyl)pyrrolo[2,1-f][1,2,4]triazin-7-yl]-N-(1-cyclohexanecarbonyl-4-methylpyrrolidin-3-yl)-2-methoxypyridine-3-carboxamide]	1.58 µM
COc1ncc(-c2cc(C(F)(F)F)c3c(N)ncnn23)cc1C(=O)NC1CN(Cc2cccc(C(F)(F)F)n2)CC1F (racemic) [Example 204, 5-[4-amino-5-(trifluoromethyl)pyrrolo[2,1-f][1,2,4]triazin-7-yl]-N-(4-fluoro-1-{[6-(trifluoromethyl)pyridin-2-yl]methyl}pyrrolidin-3-yl)-2-methoxypyridine-3-carboxamide]	0.218 µM
CC(C)(O)C(=O)N1C[C@H](F)[C@H](NC(=O)c2cccc(-c3cc(C(F)(F)F)c4c(N)ncnn34)c2)C1 [Example 87, 3-[4-amino-5-(trifluoromethyl)pyrrolo[2,1-f][1,2,4]triazin-7-yl]-N-[(3R,4S)-4-fluoro-1-(2-hydroxy-2-methylpropanoyl)pyrrolidin-3-yl)benzamide]	0.245 µM
Cc1ncc(-c2cc(C(F)(F)F)c3c(N)ncnn23)cc1C(=O)Nc1ccn(Cc2ccc(F)cc2)n1 [Example 1810, 5-(4-amino-5-(trifluoromethyl)pyrrolo[2,1-f][1,2,4]triazin-7-yl)-N-(1-(4-fluorobenzyl)-1H-pyrazol-3-yl)-2-methylnicotinamide]	0.0028 µM
COc1ncc(-c2cc(C(F)(F)F)c3c(N)ncnn23)cc1C(=O)N[C@@H]1CN(S(=O)(=O)CCC(F)(F)F)C[C@@H]1F [Example 1484, 5-[4-amino-5-(trifluoromethyl)pyrrolo[2,1-f][1,2,4]triazin-7-yl]-N-[(3R,4S)-4-fluoro-1-(3,3,3-trifluoropropanesulfonyl)pyrrolidin-3-yl]-2-methoxypyridine-3-carboxamide]	0.0019 µM
Cc1cc(F)c(-c2cc(C(F)(F)F)c3c(N)ncnn23)cc1C(=O)N[C@@H]1CN(C(=O)C(C)(C)C(F)(F)F)C[C@@H]1F [Example 806, 5-[4-amino-5-(trifluoromethyl)pyrrolo[2,1-f][1,2,4]triazin-7-yl]-4-fluoro-N-[(3R,4S)-4-fluoro-1-(3,3,3-trifluoro-2,2-dimethylpropanoyl)pyrrolidin-3-yl]-2-methylbenzamide]	0.0029 µM
C[C@@](O)(C(=O)N1C[C@H](F)[C@H](NC(=O)c2cc(-c3cc(C(F)(F)F)c4c(N)ncnn34)cc(F)c2F)C1)C(F)(F)F [Example 1332, 5-[4-amino-5-(trifluoromethyl)pyrrolo-[2,1-f][1,2,4]triazin-7-yl]-2,3-difluoro-N-[(3R,4S)-4-fluoro-1-[(2R)-3,3,3-trifluoro-2-hydroxy-2-methyl-propanoyl]pyrrolidin-3-yl]benzamide]	0.00081 µM
Nc1ncnn2c(-c3ccc(Cl)c(C(=O)N[C@@H]4CN(C(=O)c5ccccc5Cl)C[C@@H]4F)c3)cc(C(F)(F)F)c12 [Example 963, 5-[4-amino-5-(trifluoromethyl)pyrrolo[2,1-f][1,2,4]triazin-7-yl]-2-chloro-N-[(3R,4S)-1-(2-chlorobenzoyl)-4-fluoropyrrolidin-3-yl]benzamide]	0.034 µM
COc1ncc(-c2cc(C(F)(F)F)c3c(N)ncnn23)cc1C(=O)N[C@@H]1CN(C(=O)C(C)(F)C(F)(F)F)C[C@@H]1F (stereo partly drawn) [Example 1229, 5-[4-amino-5-(trifluoromethyl)pyrrolo[2,1-f][1,2,4]triazin-7-yl]-N-[(3R,4S)-4-fluoro-1-(2,3,3,3-tetrafluoro-2-methylpropanoyl)pyrrolidin-3-yl]-2-methoxypyridine-3-carboxamide]	0.0013 µM
Cc1ncc(-c2cc(C(F)(F)F)c3c(N)ncnn23)cc1C(=O)NCCC(O)c1ccc(F)cc1 (stereo not drawn) [Example 168, 5-[4-amino-5-(trifluoromethyl)pyrrolo[2,1-f][1,2,4]triazin-7-yl]-N-[3-(4-fluorophenyl)-3-hydroxypropyl]-2-methylpyridine-3-carboxamide]	0.0028 µM
Cc1cc(F)c(-c2cc(C(F)(F)F)c3c(N)ncnn23)cc1C(=O)N[C@@H]1CN(C(=O)c2ccc(Cl)nn2)C[C@@H]1F [Example 864, 5-[4-amino-5-(trifluoromethyl)pyrrolo[2,1-f][1,2,4]triazin-7-yl]-N-[(3R,4S)-1-(6-chloropyridazine-3-carbonyl)-4-fluoropyrrolidin-3-yl]-4-fluoro-2-methylbenzamide]	0.131 µM
[2H]C([2H])([2H])Oc1ncc(-c2cc(CN3CC(F)(F)C3)c3c(N)ncnn23)cc1C(=O)N[C@@H]1CN(C(=O)C2CC(F)C2)C[C@@H]1F (stereo partly drawn) [Example 1273, 5-{4-amino-5-[(3,3-difluoroazetidin-1-yl)methyl]pyrrolo[2,1-f][1,2,4]triazin-7-yl}-N-[(3R,4S)-4-fluoro-1-(3-fluorocyclobutanecarbonyl)pyrrolidin-3-yl]-2-(methoxy-d3)nicotinamide]	0.00086 µM
COc1cc(F)c(-c2cc(C(F)(F)F)c3c(N)ncnn23)cc1C(=O)N[C@@H]1CN(C(=O)CC(C)C(F)(F)F)C[C@@H]1F (stereo partly drawn) [Example 875, 5-[4-amino-5-(trifluoromethyl)pyrrolo[2,1-f][1,2,4]triazin-7-yl]-4-fluoro-N-[(3R,4S)-4-fluoro-1-(4,4,4-trifluoro-3-methylbutanoyl)pyrrolidin-3-yl]-2-methoxybenzamide]	0.0032 µM
Cc1ccc(-c2cc(CN3CCC(F)(F)CC3)c3c(N)ncnn23)cc1C(=O)N[C@@H]1CN(C(=O)c2ccccc2F)C[C@@H]1F [Example 1646, 5-{4-amino-5-[(4,4-difluoropiperidin-1-yl)methyl]pyrrolo[2,1-f][1,2,4]triazin-7-yl}-N-[(3R,4S)-4-fluoro-1-(2-fluorobenzoyl)pyrrolidin-3-yl]-2-methylbenzamide]	0.00034 µM
Cc1cc(F)c(-c2cc(C(F)(F)F)c3c(N)ncnn23)cc1C(=O)N[C@@H]1CN(C(=O)c2cccc(Br)n2)C[C@@H]1F [Example 844, 5-[4-amino-5-(trifluoromethyl)pyrrolo[2,1-f][1,2,4]triazin-7-yl]-N-[(3R,4S)-1-(6-bromopyridine-2-carbonyl)-4-fluoropyrrolidin-3-yl]-4-fluoro-2-methylbenzamide]	0.024 µM
